The supplement of paper PMC8728848
The other results are listed elsewhere or left out.

Key:
Assay in all cases: glycan array binding signal (z-score within array); higher = stronger binding
Settings in all cases: glycan notation: IUPAC condensed, linker removed; mutation: E227G
[1] = molecular target: Neu5Ac(a2-6)GlcNAc(b1-4)GlcNAc
Procedure, shortened: (§1)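 From the Consortium for Functional Glycomics database, 3228 arrays were curated, keeping only those whose protein sequence was available. Binding is given as a within-array Z-score averaged across arrays sharing a protein sequence and across linkers. Negative Z-scores can be read as non-binding.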

[2] = molecular target: Neu5Ac(a2-6)GlcNAc(b1-4)GlcNAc(b1-4)GlcNAc
Procedure, shortened: as §1

[3] = molecular target: Neu5Ac(a2-8)Neu5Ac
Procedure, shortened: as §1

[4] = molecular target: Neu5Ac(a2-8)Neu5Ac(a2-3)Gal(b1-3)GalNAc(b1-4)[Neu5Ac(a2-3)]Gal(b1-4)Glc
Procedure, shortened: as §1

[5] = molecular target: Neu5Ac(a2-8)Neu5Ac(a2-3)Gal(b1-3)GalNAc(b1-4)[Neu5Ac(a2-8)Neu5Ac(a2-3)]Gal(b1-4)Glc
Procedure, shortened: as §1

[6] = molecular target: Neu5Ac(a2-8)Neu5Ac(a2-3)Gal(b1-4)Glc
Procedure, shortened: as §1

[7] = molecular target: Neu5Ac(a2-8)Neu5Ac(a2-3)Gal(b1-4)GlcNAc
Procedure, shortened: as §1

[8] = molecular target: Neu5Ac(a2-8)Neu5Ac(a2-3)[Gal(b1-3)GalNAc(b1-4)]Gal(b1-4)Glc
Procedure, shortened: as §1

[9] = molecular target: Neu5Ac(a2-8)Neu5Ac(a2-3)[GalNAc(b1-4)]Gal(b1-4)Glc
Procedure, shortened: as §1

[10] = molecular target: Neu5Ac(a2-8)Neu5Ac(a2-8)Neu5Ac
Procedure, shortened: as §1

[11] = molecular target: Neu5Ac(a2-8)Neu5Ac(a2-8)Neu5Ac(a2-3)Gal(b1-4)Glc
Procedure, shortened: as §1

[12] = molecular target: Neu5Ac(a2-8)Neu5Ac(a2-8)Neu5Ac(a2-3)[Gal(b1-3)GalNAc(b1-4)]Gal(b1-4)Glc
Procedure, shortened: as §1

[13] = molecular target: Neu5Ac(a2-8)Neu5Ac(a2-8)Neu5Ac(a2-3)[GalNAc(b1-4)]Gal(b1-4)Glc
Procedure, shortened: as §1

[14] = molecular target: Neu5Ac(a2-8)Neu5Ac(a2-8)Neu5Ac(a2-8)Neu5Ac(a2-3)[GalNAc(b1-4)]Gal(b1-4)Glc
Procedure, shortened: as §1

[15] = molecular target: Neu5Ac(a2-8)Neu5Gc(a2-3)Gal(b1-4)GlcNAc
Procedure, shortened: as §1

[16] = molecular target: Neu5Ac(b2-6)Gal(b1-4)GlcNAc
Procedure, shortened: as §1

[17] = molecular target: Neu5Ac(b2-6)GalNAc
Procedure, shortened: as §1

[18] = molecular target: Neu5Ac9Ac(a2-3)Gal(b1-3)GlcNAc
Procedure, shortened: as §1

[19] = molecular target: Neu5Ac9Ac(a2-3)Gal(b1-4)GlcNAc
Procedure, shortened: as §1

[20] = molecular target: Neu5Ac9Ac(a2-6)Gal(b1-4)GlcNAc
Procedure, shortened: as §1

[21] = molecular target: Neu5Gc(a2-3)Gal(b1-3)GlcNAc
Procedure, shortened: as §1

[22] = molecular target: Neu5Gc(a2-3)Gal(b1-3)[Fuc(a1-4)]GlcNAc
Procedure, shortened: as §1

[23] = molecular target: Neu5Gc(a2-3)Gal(b1-4)Glc
Procedure, shortened: as §1

[24] = molecular target: Neu5Gc(a2-3)Gal(b1-4)GlcNAc
Procedure, shortened: as §1

[25] = molecular target: Neu5Gc(a2-3)Gal(b1-4)GlcNAc(b1-3)Gal(b1-4)GlcNAc(b1-2)Man(a1-3)[Neu5Gc(a2-3)Gal(b1-4)GlcNAc(b1-3)Gal(b1-4)GlcNAc(b1-2)Man(a1-6)]Man(b1-4)GlcNAc(b1-4)GlcNAc
Procedure, shortened: as §1

[26] = molecular target: Neu5Gc(a2-3)Gal(b1-4)[Fuc(a1-3)]GlcNAc
Procedure, shortened: as §1

[27] = molecular target: Neu5Gc(a2-6)Gal(b1-4)GlcNAc
Procedure, shortened: as §1

[28] = molecular target: Neu5Gc(a2-6)GalNAc
Procedure, shortened: as §1

[29] = molecular target: Neu5Gc(a2-8)Neu5Ac(a2-3)Gal(b1-4)GlcNAc
Procedure, shortened: as §1

[30] = molecular target: Neu5Gc(a2-8)Neu5Gc(a2-3)Gal(b1-4)GlcNAc
Procedure, shortened: as §1

B1: Epa1-NP-mutant-E227G (Candida glabrata), Q6VBJ0 (protein)
chain: MILNPALFLNKCVCIYTTLILLLLTNGGYATSSNDISLASKDPTTFPLGCSPDITTPKKGLSMELYSYDFRKKGSYPCWDAAYLDPNYPRTGYKSHRLLAKVDGVTGNINFYYHATKGCTPQLGHLPASYNYPKPLTMTNFTMLLYGYFRPKVTGFHTFTISADDLLFVNFGAGNAFDCCRRDSSADHFGNYQAYAIWGSKTAKDELTVHLDAGVYYPIRLFYNNRGYDGALSFTFKTESNENTVSDFSEYFFSLDDTEEGCPGLISYDSSCASVKTSKIIGIDYHTETPNENLVPITKTIYHLGIPCTGTTTTPLCGSGFYDPLANKCVTINTSSTSSVTKTTSHTTSKEVSFHSSISSQKTLIPKSIPSPYGPIKSQSIPTEMETSSEISSSEYAFSDVISTPSHSPYTKKHSSLNSSSYTSTVIHSLTSYSISQGIFSTSLSEQNITSKSSTDKFSTATSMSNNITQSSIIISQFSTNNENYTTTSMHTSSDKISTETLNNSISTTTSILFSNSSTILKNNTTIISSDKDTHYHPVNPTIVCSTNKTEIICASITQPSISNSNNHWSSSVLKFNSTTVRSTLPSSAGSNETSINVPFSSSTESNTSTSSTSTSNSKMVRSTLPSSAGSNETSISVPFSSSTESNTSTSSTSTSNSKMVRSTLPSSAGSNETSINVPFSSSTESNTSTSSTSTSNSKTVRSTPFSSAGIIMTSLSQRNNKSASSYASSNSKCYNTADSCRKVHSTPSYLLTSSYTSEGVDYDCSLVSTKLKINDTNCVNNKHTTKSCLKTSVTTTIPTLEIKTARKSSSNTIGLHSYPTSSPNKSISSAPIIGYISSFKTIKTASPSYQTSDLTTITTITSLNNPGSTAVENTHESNDKSRKTSSNDISSKHSVIKETKDAVESSNKSHQTNTLKCSSIIIASSSHNSYESLGGTTLTLTLSKVYSPQNNDTLPFLEISEVNPSRTVLPESSKMMQYLTSTEERNKTARNTIATNIVSISTFHFEGEGNAIRMGYTQLLLMLIGIIVMNIGT
glycan array binding signal (z-score) [1]: -0.187
glycan array binding signal (z-score) [2]: -0.229
glycan array binding signal (z-score) [3]: -0.302
glycan array binding signal (z-score) [4]: -0.12
glycan array binding signal (z-score) [5]: -0.191
glycan array binding signal (z-score) [6]: -0.074
glycan array binding signal (z-score) [7]: -0.226
glycan array binding signal (z-score) [8]: 0.176
glycan array binding signal (z-score) [9]: -0.236
glycan array binding signal (z-score) [10]: -0.128
glycan array binding signal (z-score) [11]: -0.195
glycan array binding signal (z-score) [12]: -0.276
glycan array binding signal (z-score) [13]: 0.025
glycan array binding signal (z-score) [14]: -0.098
glycan array binding signal (z-score) [15]: -0.25
glycan array binding signal (z-score) [16]: -0.264
glycan array binding signal (z-score) [17]: -0.207
glycan array binding signal (z-score) [18]: -0.253
glycan array binding signal (z-score) [19]: -0.115
glycan array binding signal (z-score) [20]: -0.307
glycan array binding signal (z-score) [21]: -0.077
glycan array binding signal (z-score) [22]: -0.006
glycan array binding signal (z-score) [23]: -0.13
glycan array binding signal (z-score) [24]: -0.161
glycan array binding signal (z-score) [25]: -0.18
glycan array binding signal (z-score) [26]: -0.044
glycan array binding signal (z-score) [27]: -0.199
glycan array binding signal (z-score) [28]: -0.066
glycan array binding signal (z-score) [29]: -0.226
glycan array binding signal (z-score) [30]: -0.222
